Data from the supplement of paper PMC4967469.
The IC50 comes from the fitted curve, where viability falls to half of the control; where the fit passes the top or lowest dose, that dose stands as a limit. For AUC the same curve is integrated over the 256-fold range of doses and scaled to a fraction: 1 means no effect, lower means more sensitive. For some assays here: Where the top dose is marked as inferred, it comes from the curve model; the source does not state it. For some assays here: Where an entry number is given, a second screen of the drug exists; the two often differ.

What was measured:
Assay in all cases: Viability of human cancer cell lines after 72 h of drug (GDSC screen)
[1] = compound: C/C=C(/C)C(=O)O[C@H]1C(C)=C2[C@H]([C@@H]1OC(=O)CCCCCCC)[C@@](C)(OC(C)=O)C[C@H](OC(=O)CCC)[C@@]1(O)[C@H]2OC(=O)[C@@]1(C)O [Thapsigargin]; details: top dose 0.512 µM; top dose inferred
Description: (§1)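 Human cancer cell lines in 384-well plates, medium with 10% serum, drug for 72 h over a 256-fold dose range (nine 2-fold or five 4-fold steps up to the top dose). Adherent lines were fixed and stained with the nucleic acid dye Syto60, suspension lines read with resazurin; signal relative to control wells, capped at 0 and 100%. One two-parameter sigmoid per drug and line, fitted in a mixed model over all curves with the slope shared within a line.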

[2] = compound: C=CC(=O)Nc1cc(-n2c(=O)ccc3cnc4ccc(-c5cn[nH]c5)cc4c32)ccc1C [QL-X-138]; details: top dose 10.24 µM; top dose inferred
Description: as §1

[3] = compound: CCn1c(-c2nonc2N)nc2cnc(Oc3cccc(NC(=O)c4ccc(OCCN5CCOCC5)cc4)c3)cc21 [GSK269962A]; details: top dose 5 µM; screen: GDSC drug entry 1192; top dose inferred
Description: as §1

[4] = compound: COc1cc(N2CCC(O)CC2)ccc1Nc1cc(Nc2ccccc2S(=O)(=O)C(C)C)c2cc[nH]c2n1 [MPS-1-IN-1]; details: top dose 20 µM; top dose inferred
Description: as §1

[5] = compound: COc1cc(O)c2c(c1)/C=C/C[C@H](O)[C@H](O)C(=O)/C=C\C[C@H](C)OC2=O [(5Z)-7-Oxozeaenol]; details: top dose 10 µM; top dose inferred
Description: as §1

[6] = compound: COc1cc2ncnc(-n3nc(-c4ccccn4)nc3N)c2cc1OC [CP466722]; details: top dose 16 µM; top dose inferred
Description: as §1

[7] = compound: COc1nc(C)cnc1NS(=O)(=O)c1cccnc1-c1ccc(-c2nnco2)cc1 [Zibotentan]; details: top dose 20 µM; top dose inferred
Description: as §1

[8] = compound: C[C@]1(c2nc3c(C(N)=O)cccc3[nH]2)CCCN1 [ABT-888]; details: top dose 5 µM; top dose inferred
Description: as §1

[9] = compound: Cc1ccc(F)c(NC(=O)Nc2ccc(-c3cccc4[nH]nc(N)c34)cc2)c1 [ABT-869]; details: top dose 1.024 µM; top dose inferred
Description: as §1

[10] = compound: Cc1cnc(-c2cnc(NCCNc3ccc(C#N)cn3)nc2-c2ccc(Cl)cc2Cl)[nH]1 [CHIR-99021]
Description: as §1

[11] = compound: Nc1ccn([C@@H]2O[C@H](CO)[C@@H](O)[C@@H]2O)c(=O)n1 [Cytarabine]; details: top dose 2 µM
Description: as §1

[12] = compound: O=c1cc(-c2cccc3c2Sc2ccccc2S3)oc(N2CCOCC2)c1 [KU-55933]; details: top dose 10 µM
Description: as §1

[13] = top dose 2.56 µM, screen: GDSC drug entry 154
[14] = top dose 10 µM, screen: GDSC drug entry 1241, top dose inferred

Cell Line	AUC [1]	IC50 [1] [µM]	AUC [2]	IC50 [2] [µM]	AUC [3]	IC50 [3] [µM]	AUC [4]	IC50 [4] [µM]	AUC [5]	IC50 [5] [µM]	AUC [6]	IC50 [6] [µM]	AUC [7]	IC50 [7] [µM]	AUC [8]	IC50 [8] [µM]	AUC [9]	IC50 [9] [µM]	AUC [10, 13]	IC50 [10, 13] [µM]	AUC [10, 14]	IC50 [10, 14] [µM]	AUC [11]	IC50 [11] [µM]	AUC [12]	IC50 [12] [µM]
SNU-182 (liver, adherent)	0.177	0.00322	0.861	9.29	0.866	4.79	0.966	> 20	0.656	1.74	0.686	3.41	0.986	> 20	0.986	> 5	0.983	> 1.02	0.984	> 2.56	0.893	> 10	0.723	0.555	0.961	> 10
SNU-449 (liver, adherent)	0.302	0.0084	0.833	7.52	0.943	> 5	0.967	> 20	0.748	3.48	0.789	7.78	0.985	> 20	0.986	> 5	0.971	> 1.02	0.949	> 2.56	0.927	> 10	0.886	> 2	0.941	> 10
SUIT-2 (pancreas, adherent)	0.415	0.0184	0.884	> 10.2	0.929	> 5	0.838	14.4	0.678	2.01	0.71	4.04	0.979	> 20	0.966	> 5	0.986	> 1.02	0.986	> 2.56	0.973	> 10	0.7	0.47	0.986	> 10
SW13 (adrenal gland, adherent)	0.343	0.0117	0.939	> 10.2	0.855	4.07	0.988	> 20	0.39	0.31	0.988	> 16	0.988	> 20	0.967	> 5	0.983	> 1.02	0.972	> 2.56	0.986	> 10	0.697	0.452	0.962	> 10
SW756 (cervix, adherent)	0.42	0.0185	0.884	> 10.2	0.882	> 5	0.984	> 20	0.464	0.488	0.985	> 16	0.984	> 20	0.984	> 5	0.98	> 1.02	0.984	> 2.56	0.913	> 10	0.68	0.442	0.981	> 10
SW780 (bladder, adherent)	0.815	0.315	0.962	> 10.2	0.938	> 5	0.986	> 20	0.642	1.61	0.97	> 16	0.984	> 20	0.983	> 5	0.986	> 1.02	0.982	> 2.56	0.984	> 10	0.829	1.4	0.966	> 10
SW948 (large intestine, adherent)	0.917	> 0.512	0.791	7.2	0.977	> 5	0.87	> 20	0.806	8.28	0.914	> 16	0.974	> 20	0.978	> 5	0.98	> 1.02	0.961	> 2.56	0.98	> 10	0.834	> 2	0.982	> 10
SW1417 (large intestine, adherent)	0.419	0.0185	0.94	> 10.2	0.963	> 5	0.983	> 20	0.8	5.83	0.924	> 16	0.986	> 20	0.986	> 5	0.986	> 1.02	0.866	> 2.56	0.971	> 10	0.952	> 2	0.978	> 10
SW1573 (lung adenocarcinoma, adherent)	0.542	0.0434	0.892	> 10.2	0.884	> 5	0.979	> 20	0.679	2.37	0.872	> 16	0.981	> 20	0.977	> 5	0.981	> 1.02	0.956	> 2.56	0.956	> 10	0.862	> 2	0.965	> 10
SW1710 (bladder, adherent)	0.068	< 0.002	0.69	2.23	0.688	1.07	0.935	> 20	0.659	1.75	0.781	6.84	0.976	> 20	0.985	> 5	0.982	> 1.02	0.895	> 2.56	0.879	> 10	0.829	1.29	0.907	> 10
SW1783 (glioma, adherent)	0.287	0.00862	0.931	> 10.2	0.878	4.21	0.989	> 20	0.608	1.2	0.989	> 16	0.99	> 20	0.991	> 5	0.983	> 1.02	0.99	> 2.56	0.889	9.43	0.903	> 2	0.985	> 10
SiHa (cervix, adherent)	0.986	> 0.512	0.942	> 10.2	0.939	> 5	0.986	> 20	0.717	2.87	0.978	> 16	0.987	> 20	0.987	> 5	0.985	> 1.02	0.97	> 2.56	0.905	> 10	0.715	0.565	0.987	> 10
T47D (breast, adherent)	0.873	> 0.512	0.526	0.783	0.826	> 5	0.833	> 20	0.797	7.99	0.757	8.47	0.963	> 20	0.977	> 5	0.974	> 1.02	0.977	> 2.56	0.974	> 10	0.893	> 2	0.944	> 10
T84 (large intestine, adherent)	0.355	0.0126	0.888	> 10.2	0.907	> 5	0.879	> 20	0.893	> 10	0.849	12.3	0.981	> 20	0.989	> 5	0.986	> 1.02	0.989	> 2.56	0.983	> 10	0.973	> 2	0.987	> 10
T98G (glioma, adherent)	0.267	0.00738	0.935	> 10.2	0.832	2.87	0.976	> 20	0.744	2.92	0.858	11.6	0.987	> 20	0.948	> 5	0.982	> 1.02	0.943	> 2.56	0.871	8.24	0.876	1.73	0.984	> 10
TGBC11TKB (stomach, adherent)	0.864	0.363	0.99	> 10.2	0.962	> 5	0.906	> 20	0.921	> 10	0.924	> 16	0.992	> 20	0.992	> 5	0.988	> 1.02	0.988	> 2.56	0.981	> 10	0.965	> 2	0.963	> 10
TYK-nu (ovary, adherent)	0.189	0.00348	0.92	> 10.2	0.881	> 5	0.929	> 20	0.44	0.423	0.904	> 16	0.975	> 20	0.974	> 5	0.979	> 1.02	0.75	0.887	0.878	> 10	0.754	0.713	0.918	> 10
U-118-MG (glioma, adherent)	0.478	0.0277	0.811	6.52	0.834	4	0.979	> 20	0.686	2.27	0.985	> 16	0.982	> 20	0.981	> 5	0.96	> 1.02	0.911	> 2.56	0.942	> 10	0.857	> 2	0.966	> 10
UACC-62 (melanoma, adherent)	0.689	0.107	0.836	6.66	0.921	> 5	0.974	> 20	0.169	0.0625	0.949	> 16	0.984	> 20	0.984	> 5	0.983	> 1.02			0.909	> 10	0.749	0.644	0.987	> 10
UACC-893 (breast, adherent)	0.65	0.0967	0.527	0.777	0.867	> 5	0.975	> 20	0.732	3.67	0.805	11.6	0.982	> 20	0.98	> 5	0.981	> 1.02	0.983	> 2.56	0.98	> 10	0.944	> 2	0.957	> 10
